Experimental data from the antibiotic and cytotoxicity screens of Wong et al. (2023).
The other results are listed elsewhere or left out.

Tests used:
HSkMC = human skeletal muscle cells; test: cytotoxicity call (relative viability < 0.9); details: 10 µM
HepG2 = test: cytotoxicity call (relative viability < 0.9); details: 10 µM
S. aureus RN4220 = test: growth inhibition call (relative growth <= 0.2); details: 50 µM

Row | Structure (SMILES) | cytotoxicity call (HSkMC) | cytotoxicity call (HepG2) | growth inhibition call (S. aureus RN4220)
1 | CCOC(=O)c1cc2c(=O)n(C)c(=O)n(C)c2[nH]c1=O | inactive | inactive | inactive
2 | Cc1noc(C)c1S(=O)(=O)Nc1ccc2c(c1)C(=O)N([C@@H](C)CO)C[C@H](C)[C@@H](CN(C)S(=O)(=O)c1ccccc1)O2 | inactive | inactive | inactive
3 | C[C@H](CO)N1C[C@H](C)[C@H](CN(C)Cc2ccc(C(F)(F)F)cc2)OCCCC[C@H](C)Oc2ccc(NS(C)(=O)=O)cc2C1=O | inactive | inactive | inactive
4 | C[C@@H]1CN([C@@H](C)CO)C(=O)Cc2cc(NC(=O)Nc3ccc(C(F)(F)F)cc3)ccc2O[C@H]1CN(C)S(=O)(=O)c1ccc(Cl)cc1 | inactive | inactive | inactive
5 | Cc1noc(C)c1S(=O)(=O)N(C)C[C@@H]1Oc2ccc(NS(C)(=O)=O)cc2CC(=O)N([C@H](C)CO)C[C@H]1C | inactive | inactive | inactive
6 | C[C@H]1CN([C@@H](C)CO)C(=O)c2cc(NC(=O)C3CC3)ccc2O[C@H]1CN(C)S(=O)(=O)c1ccc(Cl)cc1 | inactive | inactive | inactive
7 | C[C@@H]1COC(=O)[C@@H](NC(=O)OCC2c3ccccc3-c3ccccc32)CC=CC[C@@H](CC(=O)NCCO)C(=O)N1 | inactive | inactive | inactive
8 | Cc1noc(C)c1S(=O)(=O)Nc1cccc2c1O[C@@H](CN(C)S(=O)(=O)c1ccccc1)[C@@H](C)CN([C@H](C)CO)C2=O | inactive | inactive | inactive
9 | Cc1ccc(S(=O)(=O)N(C)C[C@@H]2Oc3c(NC(=O)Nc4cccc5ccccc45)cccc3C(=O)N([C@@H](C)CO)C[C@H]2C)cc1 | inactive | inactive | inactive
10 | C[C@H]1CN([C@@H](C)CO)C(=O)c2cc(NC(=O)Cc3cn(C)c4ccccc34)ccc2O[C@H]1CN(C)Cc1ccc(C(F)(F)F)cc1 | inactive | inactive | inactive
11 | C[C@H](CO)N1C[C@H](C)[C@H](CN(C)Cc2ccc(C(=O)Nc3ccccc3N)cc2)Oc2ccc(NC(=O)Nc3ccc(C(F)(F)F)cc3)cc2C1=O | active | active | inactive
12 | C[C@H](CO)N1C[C@H](C)[C@@H](CN(C)S(C)(=O)=O)Oc2ccc(NC(=O)CCC(F)(F)F)cc2CC1=O | inactive | inactive | inactive
13 | C[C@H]1CCCCO[C@@H](CN(C)C(=O)Nc2ccc(F)cc2)[C@@H](C)CN([C@@H](C)CO)C(=O)c2cc(NS(=O)(=O)c3ccccc3)ccc2O1 | inactive | inactive | inactive
14 | Cc1ccnc(NS(=O)(=O)c2ccc(N)cc2)n1 | inactive | inactive | inactive
15 | C[C@@H]1CCCCO[C@H](CN(C)CC2CCCCC2)[C@H](C)CN([C@H](C)CO)C(=O)c2cc(NC(=O)C3CCCCC3)ccc2O1 | inactive | inactive | inactive
16 | COc1ccc(NC(=O)Nc2ccc3c(c2)C(=O)N([C@@H](C)CO)C[C@H](C)[C@H](CN(C)Cc2ccc(C(F)(F)F)cc2)O3)cc1 | inactive | inactive | inactive
17 | Cc1noc(C)c1S(=O)(=O)N(C)C[C@H]1Oc2ccc(NC(=O)C3CC3)cc2CC(=O)N([C@H](C)CO)C[C@@H]1C | inactive | inactive | inactive
18 | Cc1noc(C)c1S(=O)(=O)Nc1ccc2c(c1)C(=O)N([C@H](C)CO)C[C@@H](C)[C@H](CN(C)S(=O)(=O)c1ccc(Cl)cc1)O2 | inactive | inactive | inactive
19 | C[C@H]1CN([C@@H](C)CO)C(=O)c2cccc(NC(=O)C3CC3)c2O[C@H]1CN(C)C(=O)Nc1ccc2c(c1)OCO2 | inactive | inactive | inactive

Row | Structure (SMILES) | cytotoxicity call (HSkMC) | cytotoxicity call (HepG2) | growth inhibition call (S. aureus RN4220)
20 | COc1ccc([Si](C)(C)[C@H]2[C@H](CC(=O)N3Cc4ccccc4C[C@H]3CO)O[C@@]3(C(=O)N(Cc4cccc(N5CCC5=O)c4)c4ccccc43)[C@@H]2C)cc1 | inactive | inactive | inactive
21 | O=C(CN1CCOCC1)NCC[C@H]1CC[C@H](NS(=O)(=O)c2ccc(Cl)cc2)[C@@H](CO)O1 | inactive | inactive | inactive
22 | C[C@H](CO)N1C[C@H](C)[C@H](CN(C)Cc2ccccc2)OCc2ccccc2-c2c(n(C)c3ccccc23)C1=O | inactive | inactive | inactive
23 | Cc1ccc(C#N)c(SCC(N)=O)n1 | inactive | inactive | inactive
24 | COCC(=O)N1C[C@H](C)[C@@H](OC)CN(C)C(=O)c2ccc(NC(=O)Nc3ccccc3)cc2OC[C@@H]1C | inactive | inactive | inactive
25 | COc1ccc(S(=O)(=O)N(C)C[C@@H]2OCCCC[C@@H](C)Oc3ccc(NC(=O)C4CCCCC4)cc3C(=O)N([C@H](C)CO)C[C@H]2C)cc1 | inactive | active | inactive
26 | C[C@H](CO)N1C[C@H](C)[C@@H](CN(C)CC2CCCCC2)OCCCC[C@H](C)Oc2ccc(NC(=O)CCCCCC(=O)Nc3ccccc3N)cc2C1=O | inactive | inactive | inactive
27 | C[C@H]1CCCCO[C@H](CN(C)S(=O)(=O)c2ccccc2)[C@@H](C)CN([C@@H](C)CO)C(=O)c2cc(NC(=O)c3ccccc3)ccc2O1 | inactive | inactive | inactive
28 | COc1ccc(NC(=O)N(C)C[C@@H]2Oc3ccc(NC(=O)CCCN(C)C)cc3C(=O)N([C@H](C)CO)C[C@H]2C)cc1 | inactive | inactive | inactive
29 | C[C@@H]1CCCCO[C@@H](CN(C)Cc2ccc(C(F)(F)F)cc2)[C@@H](C)CN([C@@H](C)CO)C(=O)c2cc(N(C)C)ccc2O1 | inactive | inactive | inactive
30 | CC(=O)Nc1cc2c(s1)CCCC2 | inactive | inactive | inactive
31 | CC1(C)CC(=O)C=C(NCC(=O)O)C1 | inactive | inactive | inactive
32 | C[C@@H]1CN([C@@H](C)CO)C(=O)c2cccc(NS(=O)(=O)c3ccc(Cl)cc3)c2O[C@@H]1CN(C)Cc1ccc(-c2ccccc2)cc1 | active | active | inactive
33 | Nc1ncnc2c1c(I)cn2[C@H]1O[C@@H](CO)[C@@H](O)[C@@H]1O | inactive | active | inactive
34 | C[C@@H]1CN([C@@H](C)CO)C(=O)c2cc(NC(=O)Nc3cccc4ccccc34)ccc2O[C@H]1CN(C)Cc1ccccc1 | inactive | inactive | inactive
35 | C#CC1(O)CCC2C3CCC4=CCCCC4C3CCC21C (stereo not drawn) | active | active | inactive
36 | COc1ccc(S(=O)(=O)Nc2ccc3c(c2)C(=O)N([C@@H](C)CO)C[C@@H](C)[C@@H](CN(C)Cc2ccc(C(F)(F)F)cc2)OCCCC[C@H](C)O3)cc1 | inactive | inactive | inactive
37 | NC1=NNC(=O)C1 | inactive | inactive | inactive
38 | Cc1noc(C)c1NC(=O)Nc1ccc2c(c1)C(=O)N([C@@H](C)CO)C[C@@H](C)[C@H](CN(C)Cc1ccccc1)OCCCC[C@H](C)O2 | inactive | inactive | inactive

Row | Structure (SMILES) | cytotoxicity call (HSkMC) | cytotoxicity call (HepG2) | growth inhibition call (S. aureus RN4220)
39 | O=C(C[C@@H]1CC[C@H]2[C@@H](COC[C@@H](O)CN2S(=O)(=O)c2ccc(Cl)cc2)O1)NCC1CCCCC1 | inactive | inactive | active
40 | CCCC(=O)Nc1ccc2c(c1)OC[C@@H](C)N(C(=O)Cc1cccnc1)C[C@@H](C)[C@H](OC)CN(C)C2=O | inactive | inactive | inactive
41 | CCC[C@@H](O)C#Cc1cnc2c(c1)C(=O)N([C@H](C)CO)C[C@H](C)[C@H](CN(C)S(=O)(=O)c1ccc(OC)cc1)O2 | inactive | inactive | inactive
42 | C[C@H]1CN([C@@H](C)CO)C(=O)Cc2cc(NC(=O)Nc3ccccc3)ccc2O[C@@H]1CN(C)Cc1ccc(C(=O)Nc2ccccc2N)cc1 | inactive | inactive | inactive
43 | N[C@H]1CC[C@@H](CCn2cc(-c3ccccn3)nn2)O[C@H]1CO | inactive | inactive | inactive
44 | C[C@@H]1CCCCO[C@H](CN(C)C(=O)CCC(F)(F)F)[C@H](C)CN([C@H](C)CO)C(=O)c2cc(NC(=O)Cc3ccccc3)ccc2O1 | inactive | inactive | inactive
45 | C[C@H](O)C#Cc1ccc2c(c1)O[C@@H](CN(C)C(=O)c1ccncc1)[C@@H](C)CN([C@H](C)CO)S2(=O)=O | inactive | inactive | inactive
46 | COc1cccc(S(=O)(=O)Nc2ccc3c(c2)OC[C@@H](C)N(C(=O)Cc2cccnc2)C[C@@H](C)[C@@H](OC)CN(C)C3=O)c1 | inactive | inactive | inactive
47 | CCC(=O)O[C@H]1[C@@H]2CC3=C4CC(=O)O[C@@H](c5ccoc5)[C@]4(C)CC[C@@H]3[C@@](C)(C2=O)[C@@H](CC(=O)OC)C1(C)C | inactive | inactive | inactive
48 | C[C@H]1CN([C@@H](C)CO)C(=O)c2cccc(NC(=O)c3ccc(-c4nccs4)cc3)c2O[C@H]1CN(C)Cc1ccccc1 | inactive | inactive | inactive
49 | C[C@H](CO)N1C[C@H](C)[C@@H](CN(C)S(=O)(=O)c2cn(C)cn2)Oc2ccc(NC(=O)Cn3cnnn3)cc2CC1=O | inactive | inactive | inactive
50 | NCc1nc2c([nH]1)CCCC2 | inactive | inactive | inactive
51 | O=C(Nc1nccs1)[C@@H]1[C@@H](CO)[C@@H]2Cn3c(cccc3=O)[C@@H]2N1C(=O)C1CC1 | inactive | inactive | inactive
52 | CC1(C)OC(=O)C2(C(=O)O1)[C@@H](c1ccc(-c3cccc(Br)c3)cc1)CC(=O)C[C@H]2c1ccccc1 | inactive | inactive | inactive
53 | CN(C)c1nc(NCCO)c2cnn(C)c2n1 | inactive | inactive | inactive
54 | CC(C)NC(=O)N(C)C[C@@H]1Oc2ccc(NC(=O)Cn3cnnn3)cc2CC(=O)N([C@H](C)CO)C[C@@H]1C | inactive | inactive | inactive
55 | C[C@H]1CN([C@@H](C)CO)S(=O)(=O)c2ccc(-c3cncnc3)cc2O[C@H]1CN(C)C(=O)CN(C)C | inactive | inactive | inactive
56 | CC(C)NC(=O)Nc1ccc2c(c1)CC(=O)N([C@H](C)CO)C[C@@H](C)[C@@H](CN(C)Cc1ccc3c(c1)OCO3)O2 | inactive | inactive | inactive
